The supplement of paper PMC10126150
Values marked as one replicate rest on one cluster of the flow cell; about a third of the high ones do not repeat.

Test system: ATP
Test: switch fluorescence ratio, 500 uM ATP over buffer (Cy3 cluster intensity, sum of 5 cycles each) (fold (ratio)); higher = stronger signal-on switching upon ATP binding; sequences stand for … in TCGTCGGCAGCGTCAGATGTGTATAAGAGACAGTTTTTTTTTTTTTTTTTTTTTTTTT…TC
Details: aptamer strand: ATP DNA aptamer (quencher-CACCTGGGGGAGTATTGCGGAGGAAGG + anchor), 100 nM annealed; ATP concentration: 500 uM; one replicate
Summary of the method: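 Clusters with intensities outside 100-1000 RFU were excluded. The remaining Cy3-labelled switching-strand clusters on a modified Illumina MiSeq flow-cell had been annealed to 100 nM quencher-labelled ATP aptamer and imaged in selection buffer, then after 15 min with 500 uM ATP at 22 °C, for five cycles separated by NaOH stripping and re-annealing. The fluorescence ratio, averaged per switch-domain sequence, is each cluster's summed target-cycle Cy3 intensity over its summed buffer-cycle Cy3 intensity.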
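Note: ATP exposure 15 min at 22 °C before imaging.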

Sequence: CAATACGGTG
- switch fluorescence ratio: 1.4

Sequence: TTGGATATCC
- switch fluorescence ratio: 0.952

Sequence: AGGAAAATTG
- switch fluorescence ratio: 1.01

Sequence: GTTGCTATAA
- switch fluorescence ratio: 1.01

Sequence: TGGTGCATTA
- switch fluorescence ratio: 0.989

Sequence: GGGGCTAACC
- switch fluorescence ratio: 1.05

Sequence: GGAACTAAAG
- switch fluorescence ratio: 0.982

Sequence: GAACACCATT
- switch fluorescence ratio: 1.01

Sequence: GTTTAGTAAA
- switch fluorescence ratio: 0.99

Sequence: GTTTTCGAAC
- switch fluorescence ratio: 1.01

Sequence: ATGTGTCAGT
- switch fluorescence ratio: 0.994

Sequence: GGGTGGCCGG
- switch fluorescence ratio: 1.03

Sequence: CTATCTAGGG
- switch fluorescence ratio: 0.998

Sequence: TGCATATGTC
- switch fluorescence ratio: 1.02

Sequence: CCACGATTCC
- switch fluorescence ratio: 1.17

Sequence: TGGCAGATAT
- switch fluorescence ratio: 1.02

Sequence: CGCTGCAAGC
- switch fluorescence ratio: 1.84

Sequence: ACCTCGTAT
- switch fluorescence ratio: 0.96

Sequence: ATGATGGGAA
- switch fluorescence ratio: 0.974

Sequence: CGTGTTGTGC
- switch fluorescence ratio: 1.03

Sequence: ATCTGATTGG
- switch fluorescence ratio: 1.01

Sequence: GCTCAAAGGG
- switch fluorescence ratio: 1.03

Sequence: AGTGGGCCCC
- switch fluorescence ratio: 1.01

Sequence: GTTTCAATAT
- switch fluorescence ratio: 1

Sequence: TCGTAGGGTA
- switch fluorescence ratio: 1

Sequence: TTATGACGT
- switch fluorescence ratio: 1.02

Sequence: GCGTTAGGT
- switch fluorescence ratio: 0.981

Sequence: CGGTAGGCAG
- switch fluorescence ratio: 0.969

Sequence: ACAAATGCT
- switch fluorescence ratio: 0.986

Sequence: GCAAGGGACT
- switch fluorescence ratio: 1.02

Sequence: GTGAGTCAGT
- switch fluorescence ratio: 0.955

Sequence: ATCCAGTCGG
- switch fluorescence ratio: 1.03

Sequence: GCGTAGGGCT
- switch fluorescence ratio: 0.995

Sequence: AGGTATACAG
- switch fluorescence ratio: 1

Sequence: TTTTAAGGCG
- switch fluorescence ratio: 0.958

Sequence: CAATCAGCAG
- switch fluorescence ratio: 1.12

Sequence: TAGGGCATT
- switch fluorescence ratio: 1.01

Sequence: CGACAGTTTT
- switch fluorescence ratio: 0.988

Sequence: TGAGGTATCG
- switch fluorescence ratio: 1.01

Sequence: CTTCCCCATA
- switch fluorescence ratio: 1.06

Sequence: TCGTGCCTAT
- switch fluorescence ratio: 1.04

Sequence: TGGTCTCACC
- switch fluorescence ratio: 1.01

Sequence: TGAGTGAAGG
- switch fluorescence ratio: 0.918

Sequence: AGTCCGGGTC
- switch fluorescence ratio: 0.976

Sequence: AGCCCGATGG
- switch fluorescence ratio: 1.01

Sequence: AGGTGGTTAG
- switch fluorescence ratio: 1.04

Sequence: TTAGGGAGAT
- switch fluorescence ratio: 0.982

Sequence: AAGAAATCTT
- switch fluorescence ratio: 0.957

Sequence: TCCATTTTAG
- switch fluorescence ratio: 0.98

Sequence: TCATTTGCA
- switch fluorescence ratio: 1.06

Sequence: GGCAAGGATT
- switch fluorescence ratio: 1.03

Sequence: TGCTCTTTAT
- switch fluorescence ratio: 1.01

Sequence: GTAGGAGTA
- switch fluorescence ratio: 0.99

Sequence: TCCACTTTTG
- switch fluorescence ratio: 1.01

Sequence: TTGACGTAGC
- switch fluorescence ratio: 1.27

Sequence: CTTGACAAGA
- switch fluorescence ratio: 1

Sequence: TAATCGAGTG
- switch fluorescence ratio: 0.952

Sequence: TTTAGGATAG
- switch fluorescence ratio: 0.989

Sequence: AAGGGCACAC
- switch fluorescence ratio: 0.991

Sequence: GGTAGATCTA
- switch fluorescence ratio: 1.03

Sequence: CATGCGGATT
- switch fluorescence ratio: 1

Sequence: ACTTAAAGGT
- switch fluorescence ratio: 1.05

Sequence: GGATTTTCGG
- switch fluorescence ratio: 0.98

Sequence: CTAGGGTACA
- switch fluorescence ratio: 1.09

Sequence: CTACCCAACG
- switch fluorescence ratio: 1.21

Sequence: ATATGAGCAT
- switch fluorescence ratio: 0.975

Sequence: TGCTTCATTG
- switch fluorescence ratio: 0.999

Sequence: TGGCTTTATT
- switch fluorescence ratio: 0.938

Sequence: TCAATGGCGT
- switch fluorescence ratio: 0.986

Sequence: GGGTGCAGTT
- switch fluorescence ratio: 0.97

Sequence: TTGGTGACAG
- switch fluorescence ratio: 0.956

Sequence: CCGTGTGGAC
- switch fluorescence ratio: 1.2

Sequence: GCACGTCTCT
- switch fluorescence ratio: 1.12

Sequence: GGTGCTGCCC
- switch fluorescence ratio: 0.968

Sequence: GCATGTAAAT
- switch fluorescence ratio: 1

Sequence: TACTAATATT
- switch fluorescence ratio: 1.03

Sequence: CGTGTACGGC
- switch fluorescence ratio: 1.03

Sequence: AGGAACTTCG
- switch fluorescence ratio: 1.01

Sequence: ACCGTCCCAT
- switch fluorescence ratio: 0.991

Sequence: CAGTTCGCAC
- switch fluorescence ratio: 1.41

Sequence: GAGAGGCCTG
- switch fluorescence ratio: 0.98

Sequence: TGGTGGCTGA
- switch fluorescence ratio: 1.01

Sequence: GGGATGACTC
- switch fluorescence ratio: 0.935

Sequence: GTCTCAGGGG
- switch fluorescence ratio: 1.11

Sequence: CGAGGGTTAC
- switch fluorescence ratio: 1.11

Sequence: CTGACTTTAA
- switch fluorescence ratio: 1.03

Sequence: GTAGGTACCG
- switch fluorescence ratio: 0.982

Sequence: TACATCTCAG
- switch fluorescence ratio: 0.982

Sequence: GTCTTAAACG
- switch fluorescence ratio: 1.06

Sequence: AGAGGGAGTG
- switch fluorescence ratio: 1.01

Sequence: CTCCATCGTA
- switch fluorescence ratio: 1.03

Sequence: CATCCAAATA
- switch fluorescence ratio: 1.13

Sequence: TGGCCTGGG
- switch fluorescence ratio: 0.987

Sequence: TCCTGGCTTG
- switch fluorescence ratio: 0.994

Sequence: GAATGACAAC
- switch fluorescence ratio: 1

Sequence: AACGAGATTA
- switch fluorescence ratio: 1.06

Sequence: TATTTGAGC
- switch fluorescence ratio: 0.995

Sequence: TCACAGACCC
- switch fluorescence ratio: 1.15

Sequence: CTCCCGTCTC
- switch fluorescence ratio: 1.28

Sequence: CAGATAGCAA
- switch fluorescence ratio: 2.76

Sequence: GGTTCAGTCA
- switch fluorescence ratio: 0.965

Sequence: CGCTCATCAT
- switch fluorescence ratio: 1.01

Sequence: AAACGGTGTA
- switch fluorescence ratio: 1

Sequence: TGTAGGAATT
- switch fluorescence ratio: 0.999

Sequence: TTAGAAGAAA
- switch fluorescence ratio: 1.06

Sequence: TGACATTCCA
- switch fluorescence ratio: 1.04

Sequence: GGGGACAGG
- switch fluorescence ratio: 1.04

Sequence: AAACACCCG
- switch fluorescence ratio: 1.05

Sequence: ACATGGACCT
- switch fluorescence ratio: 1.28

Sequence: TTCATGTCGA
- switch fluorescence ratio: 1.01

Sequence: AAACGGGGTG
- switch fluorescence ratio: 1

Sequence: TTCATATGAT
- switch fluorescence ratio: 0.944

Sequence: ATGGTGCCGG
- switch fluorescence ratio: 1.06

Sequence: TCGGTTCTA
- switch fluorescence ratio: 1.03

Sequence: TTGCATATCA
- switch fluorescence ratio: 1.13

Sequence: ATATACGGAT
- switch fluorescence ratio: 1.02

Sequence: AGCGTGGGGC
- switch fluorescence ratio: 1.05

Sequence: GAGTAGTGTA
- switch fluorescence ratio: 0.974

Sequence: GGCATGTAAC
- switch fluorescence ratio: 1.12

Sequence: CTACGGGTTT
- switch fluorescence ratio: 1.03

Sequence: GCTTCAGTTT
- switch fluorescence ratio: 0.97

Sequence: TGCCCAGAAG
- switch fluorescence ratio: 1.06

Sequence: GCGTACAATG
- switch fluorescence ratio: 1

Sequence: GTTAGTGGAC
- switch fluorescence ratio: 1.01

Sequence: AGGAGTAAGT
- switch fluorescence ratio: 0.942

Sequence: CAGGTTTTGA
- switch fluorescence ratio: 0.993

Sequence: GTCGCTCGGG
- switch fluorescence ratio: 0.972

Sequence: TTAGCAATTG
- switch fluorescence ratio: 1.13

Sequence: CGTCTTAAAT
- switch fluorescence ratio: 1.01

Sequence: TTTGAGTTTC
- switch fluorescence ratio: 1.02

Sequence: GTACAAGCGG
- switch fluorescence ratio: 1.04

Sequence: TATTTCTCTT
- switch fluorescence ratio: 0.952

Sequence: TTCAGAGTTA
- switch fluorescence ratio: 0.959

Sequence: CCTTTCCTTC
- switch fluorescence ratio: 1.33

Sequence: TTCGTGATGG
- switch fluorescence ratio: 1.02

Sequence: CAAATTGAGG
- switch fluorescence ratio: 0.972

Sequence: TTGATAGCGG
- switch fluorescence ratio: 1.04

Sequence: CGGTGGGGC
- switch fluorescence ratio: 1.03

Sequence: TTCCTGCGG
- switch fluorescence ratio: 1.1

Sequence: TAGTGGATGT
- switch fluorescence ratio: 1.09

Sequence: GTAGTTTTTG
- switch fluorescence ratio: 1

Sequence: TAACCGTAGG
- switch fluorescence ratio: 0.983

Sequence: AGTCGGGTCC
- switch fluorescence ratio: 1.04

Sequence: ATCCTGGTCT
- switch fluorescence ratio: 1.02

Sequence: TATTGTCTGA
- switch fluorescence ratio: 1.01

Sequence: ACTCGTTTGC
- switch fluorescence ratio: 1.04

Sequence: GGCAATTCTG
- switch fluorescence ratio: 1.02

Sequence: CAAAATTCGA
- switch fluorescence ratio: 1

Sequence: CTCAGGTAGA
- switch fluorescence ratio: 1

Sequence: ATGTTCGGAC
- switch fluorescence ratio: 1.03

Sequence: AAGCAGCAGC
- switch fluorescence ratio: 0.937

Sequence: CAAACGTGAT
- switch fluorescence ratio: 1.29

Sequence: ATGATGTTTA
- switch fluorescence ratio: 1.02

Sequence: TTTTGGCCT
- switch fluorescence ratio: 1.03

Sequence: ATAATGTCCC
- switch fluorescence ratio: 0.993

Sequence: TCATTAAAA
- switch fluorescence ratio: 0.98

Sequence: TAAAGTCCTA
- switch fluorescence ratio: 0.969
